# Reference: PubChem BioAssay AID686978 (National Center for Advancing Translational Sciences (NCATS), 2013)
# Among all 420,000 compounds or so, about 64,000 (15%) were called active. This list was built around the results that the source calls inconclusive (neither active nor inactive); the mix of calls is not that of the screen. The call rests on the fitted dose curve; in most records, active means well fitted inhibition curve with a large enough effect; inconclusive means small, poorly fitted or top-dose-only effect; inactive means flat fitted curve, though single readings scatter. No potency is given beside an inconclusive call; the fits are too rough.
# Experiment: qHTS for Inhibitors of human tyrosyl-DNA phosphodiesterase 1 (TDP1): qHTS in cells in absence of CPT; further: nearly all actives have a fitted effect of over 55% in size
# Conditions: DT40 Tdp1-/- hTDP1 cells, no CPT, ATP luminescence, 48 h; activity change, negative = growth inhibition: at 46.2 µM (top of the series) unless noted
# Procedure, shortened: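 A cellular qHTS used chicken DT40 cells lacking endogenous Tdp1 but carrying stably transfected human TDP1. Compounds were applied without camptothecin, and cell growth kinetics were judged by ATP-dependent luminescence after ≥48 hr.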
# On the % scale 0 is the no-effect control and ±100 the full control effect; potency means the concentration at half of the fitted maximal effect; tags describe the fitted curve by direction and shape.
Compound,Potency,"activity change, negative = growth inhibition"
CCOC(=O)c1ccccc1NC(=O)c1cn(-c2ccc(C)c(C)c2)c(=O)c2ccccc12,"inconclusive [inhibitor, single point]",
COc1ccc(Oc2ncc3ncc(=O)n(Cc4ccc(F)cc4)c3n2)cc1,"inconclusive [inhibitor, single point]",
COc1ccc(CN2C(=O)c3cccnc3C2=O)cc1S(=O)(=O)N1CCCCC1C (stereo not drawn),"inconclusive [inhibitor, single point]",
O=C(CSc1ccccc1F)NCCN1C(=O)CSC1=O,inactive,
CCN1/C(=C2\OC(=S)N(C)C2=O)Sc2ccccc21,inactive,
CC(=O)Nc1cnc(-c2cc(C)c(O)c(C)c2)cn1,inactive,
CC(C)Cc1nnc(NC(=O)CCc2ccccc2)s1,inactive,
CSc1ccccc1C(=O)C1CCCN(C(=O)c2ccc(N3CCOCC3)cc2)C1 (stereo not drawn),"inconclusive [inhibitor, single point]",
COc1cc(/C=N/NC(=O)c2cccc(NC(=O)c3ccccc3)c2)ccc1O,,inconclusive: -33.9% [inhibitor]
CC(C)CCN(C)C1CCN(S(=O)(=O)c2cccc(C(F)(F)F)c2)CC1,inactive,
CC(=O)Cc1nsc(NC(=O)c2ccc(-c3ccccc3Cl)o2)n1,"inconclusive [inhibitor, single point]",
O=c1c2sc(-c3ccccc3)cc2nc2n1CCCCC2,active: 11.6 µM,
Cc1ccccc1NC(=O)c1sc2nc(-c3ccncc3)ccc2c1N,active: 16.4 µM,
COc1ccc(OC2C(=O)N(Cc3ccc4c(c3)OCO4)C2c2cccs2)cc1 (stereo not drawn),"inconclusive [inhibitor, partial curve]",
COc1ccc(NC(=O)CSc2nc3c(c(=O)n(C)c(=O)n3C)n2C)c(OC)c1,inactive,
Cn1sc(NC(=O)c2cccc(Cl)c2)nc1=O,,inconclusive: -33.6% [inhibitor]
O=C(Nc1cccc([N+](=O)[O-])c1)Nc1ccc2c(c1)OCCO2,"inconclusive [inhibitor, partial curve]",
COc1ccc(NC(=O)CN2CCN(c3c(C)cccc3C)CC2)cc1,"inconclusive [inhibitor, single point]",
O=C(c1cc2ccccc2o1)N1CCCC1,"inconclusive [inhibitor, full curve, poor fit]",
O=C(NC1CCC(O)CC1)c1ccc(Br)o1 (stereo not drawn),inactive,
O=C(Cc1nc(-c2ccc([N+](=O)[O-])cc2)cs1)Nc1ccccc1,active: 15.8 µM,
O=C(O)C1CCC(=O)N1Cc1ccccc1Cl (stereo not drawn),"inconclusive [inhibitor, full curve, poor fit]",
CC(C)CCNC(=O)c1ccc2c(Cl)c3c(nc2c1)CCC3,"inconclusive [inhibitor, single point]",
O=C(c1ccccc1)N1CCN(Cc2ccccc2)CC1,inactive,
OCCNCCCCOc1ccc(OCc2ccccc2)cc1,"inconclusive [inhibitor, single point]",

Compound,Potency,"activity change, negative = growth inhibition"
COc1cccc(-n2c(CN3CCN(c4cccc(C)c4)C(C)C3)nc3ccc([N+](=O)[O-])cc3c2=O)c1 (stereo not drawn),"inconclusive [inhibitor, single point]",
O=C(Nc1cccc(-c2cn3ccccc3n2)c1)c1cnccn1,"inconclusive [inhibitor, single point]",
Cc1occc1C(=O)NCc1ccco1,inactive,
C=CCn1c(=NC(=O)c2cc(Cl)sc2Cl)sc2cc(S(N)(=O)=O)ccc21,"inconclusive [inhibitor, single point]",
COc1ccccc1-c1oc2ccccc2c1C#CCCO,"inconclusive [inhibitor, partial curve]",
Cc1c(C)c2c(OCC(=O)NCc3cccnc3)cc3c(c2oc1=O)CCC(C)(C)O3,inactive,
CC(C)OC(=O)Cn1nc(C(F)(F)F)c2c1CCCC2,inactive,
CN1C(=O)c2ccccc2C(C(=O)O)C1c1cn(C)c2ccccc12 (stereo not drawn),"inconclusive [inhibitor, single point]",
O=C(/C(=C/c1cccnc1)n1ccnc1)c1ccc(Cl)cc1Cl,active: 14.6 µM,
C#CCN1C=CC(=O)[C@@H](OC(=O)Nc2ccccc2Br)[C@H]1c1ccccc1Br,"inconclusive [inhibitor, partial curve]",
CN(C)C(=S)NC(=O)c1cccc(Cl)c1,"inconclusive [inhibitor, single point]",
O=C(Nc1nc(-c2ccncc2)cs1)c1ccc(F)cc1,inactive,
CCOC(=O)C1=C(C)N(c2ccc(OC)cc2)C(=O)/C1=C\c1cccs1,"inconclusive [inhibitor, single point]",
CC(=O)Nc1ccc(SCC(=O)N(CCC#N)c2ccc(C)cc2)cc1,"inconclusive [inhibitor, partial curve]",
O=C(CCl)Nc1cccc(CP(=O)(c2ccccc2)c2ccccc2)c1,active: 2.59 µM,
COc1ccc(N2CCN(C(CNC(=O)C(C)(C)C)c3cccnc3)CC2)cc1 (stereo not drawn),,inconclusive: -31.2% [inhibitor]
Cc1cc2ccccc2n1-c1ccc(C(=O)N2CCCCC2)s1,"inconclusive [inhibitor, single point]",
CCC(C)(C)c1nnc(NC(=O)C2CCN(C(=O)c3ccco3)CC2)s1,"inconclusive [inhibitor, single point]",
CC(C)(C)c1ccc(-c2noc(CCC(=O)Nc3cccnc3)n2)cc1,"inconclusive [inhibitor, single point]",
Cn1ccc2c(N3CCCCCC3)cc3c(c21)C1CCC3C1 (stereo not drawn),active: 11.6 µM,
O=C1NC(=S)S/C1=C\c1cc(Cl)cc(Cl)c1O,"inconclusive [inhibitor, single point]",
COc1ccc(N2CCN(C(=O)c3ccc4c(=O)n(CC5CCCO5)c(=O)[nH]c4c3)CC2)cc1 (stereo not drawn),"inconclusive [inhibitor, partial curve, poor fit]",
COc1cc(/C=N/NC(=O)CCc2n[nH]c(=O)[nH]c2=O)ccc1O,inactive,
Cc1c(C(=O)NCCCN2CCCC2=O)cnn1-c1ncc2c(n1)-c1ccccc1CC2,inactive,
CC(C)(c1ccccc1)c1ccc(OCC(O)CN2CCCC2)cc1 (stereo not drawn),"inconclusive [inhibitor, single point]",

Compound,Potency,"activity change, negative = growth inhibition"
CCc1cc(C(=O)Nc2nnc(C3CC3)s2)sc1C,inactive,
CCOC(=O)C1(Cc2ccc(Cl)cc2)CCN(CCCn2cccn2)CC1,active: 20.6 µM,
Cc1ccc(C(=O)c2c3ccc([N+](=O)[O-])cc3[n+]([O-])n2CCCC(N)=O)cc1,"inconclusive [inhibitor, single point]",
O=C(NCc1ccc(F)cc1)C1CCN(S(=O)(=O)c2ccc(Cl)cc2)CC1,"inconclusive [inhibitor, partial curve]",
CN(C)c1ccc(S(=O)(=O)N2CCCCC2)cc1NC(=O)COc1ccccc1F,"inconclusive [inhibitor, single point]",
CC(C)/C=C1\CC/C(=C\c2ccc(N(C)C)cc2)C1=O,"inconclusive [inhibitor, single point]",
Cc1ccccc1N1CCN(C2CCCN(C(=O)c3ccsc3)C2)CC1 (stereo not drawn),"inconclusive [inhibitor, single point]",
Cc1ccc(NC(=S)NCCN(C2CCCCC2)C2CCCC2)cc1,"inconclusive [inhibitor, single point]",
CC[C@]12c3[nH]c4ccc(Cl)cc4c3CCN1C(=O)[C@@H](CC(=O)NCCC1=CCCCC1)C[C@@H]2C(=O)N1CCN(C(=O)c2ccco2)CC1,"inconclusive [inhibitor, single point]",
CCOC(=O)c1[nH]c2ccccc2c1NC(=O)c1ccc(OC(C)C)cc1,"inconclusive [inhibitor, partial curve]",
Cc1c(CNCc2cccs2)c(C(=O)O)c(C)n1Cc1ccccc1,inactive,
COc1ccc(N(C(C)C(=O)N(C)Cc2ccccc2)S(C)(=O)=O)cc1 (stereo not drawn),"inconclusive [inhibitor, single point]",
CC(C)NC(=O)CN(c1cccc(Br)c1)S(C)(=O)=O,inactive,
CCCCn1c(COc2cccc(OC)c2)nc2ccccc21,"inconclusive [inhibitor, single point]",
Cn1cnc([N+](=O)[O-])c1NC(C)(C)C,inactive,
O=C(NCCN1CCCC1)C1(S(=O)(=O)c2ccc(Cl)cc2)CC1,,inconclusive: -31.9% [inhibitor]
CCOc1c(Cl)cc(CNCc2ccncc2)cc1OC,"inconclusive [inhibitor, single point]",
CCOc1ccc(S(=O)(=O)N2CCC(C(=O)N3CCCC3)CC2)cc1C,"inconclusive [inhibitor, partial curve, poor fit]",
COc1ccc(-c2noc(-c3ccccc3C(=O)NCC3CCCO3)n2)cc1 (stereo not drawn),"inconclusive [inhibitor, single point]",
O=C(Nc1ccc(Br)cc1Cl)c1ccc(OCC2CCCO2)cc1 (stereo not drawn),"inconclusive [inhibitor, partial curve]",
COc1ccc(C(=O)O/N=C(\N)c2ccccn2)cc1,inactive,
COc1cc(NC(=O)c2cc3c(=O)oc4ccc(C)cc4c3s2)cc(OC)c1OC,inactive,
Cc1onc(-c2ccccc2)c1C(=O)OCC(=O)Nc1ccc(Cl)cc1,,inconclusive: -33.4% [inhibitor]
